# From PubChem BioAssay AID651820 (National Center for Advancing Translational Sciences (NCATS), 2012)
# Screen size: about 340,000 compounds; about 12,000 (3.5%) were called active. Inconclusive results, whose numbers are uncertain, are shown with a selection of clear calls. Calls come from the whole dose curve; as a rule, active = well fitted inhibition curve with a large enough effect; inconclusive = small, poorly fitted or top-dose-only effect, or another doubt; inactive = no such curve, though single readings can be large or run the other way. No potency is given beside an inconclusive call; the fits are too rough.
# Experiment: qHTS Assay for Inhibitors of Hepatitis C Virus (HCV)
# Details: Huh7.5.1 HCVcc-Cre (HCVcc is cell-culture hepatitis C virus) infection, luciferase reporter, 44 h; series mostly up to 41.8 µM
# Procedure, shortened: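 Seed cells (1,000/well) for 4 h; treat with compound and infect with HCVcc-Cre, moi about 0.5. Incubate 44 h, then detect luciferase activity.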
# Potency is the fitted concentration of half-maximal effect; tags give direction and shape of the fitted curve.
row,Compound,Potency
1,COc1ccc([N+](=O)[O-])cc1NC(=O)C(C)NNC(=O)c1cccc([N+](=O)[O-])c1 (configuration not stated),"inconclusive [inhibitor, full curve, poor fit]"
2,COc1ccc(CC(=O)Nc2cccc(/C(C)=N/NC(=O)C3(C)CC3(Br)Br)c2)cc1 (configuration not stated),active: 10 µM
3,CCCCOc1ccccc1NC(=O)c1scc2c1OCCO2,active: 12.6 µM
4,COc1ccc(NC(=O)c2ccc(S(=O)(=O)N(C)c3ccccc3)cc2)cn1,"inconclusive [inhibitor, single point]"
5,COc1cc(/C=C/C(=O)OCC(=O)c2ccc(OC(F)F)cc2)ccc1O,active: 10 µM
6,COc1ccccc1NS(=O)(=O)c1ccc(C(=O)N2CCN(c3ccccn3)CC2)cc1,active: 11.2 µM
7,CCOC(=O)c1c(NC(=O)C(=O)N/N=C/c2ccc(O)c(OC)c2)sc2c1CCCCC2,"inconclusive [inhibitor, full curve, poor fit]"
8,OCCCc1cn(-c2ccccc2)c2ccccc12,active: 10 µM
9,O=C(c1cccs1)N(Cc1cc2ccccc2[nH]c1=O)c1ccccc1,"inconclusive [inhibitor, single point]"
10,COc1ccc(/C=N/Nc2cc(C)nc3ccc(Br)cc23)cc1,active: 6.31 µM
11,CC(C)(C)c1ccc(S(=O)(=O)N2CCC(O)(c3ccc(Cl)cc3)CC2)cc1,"inconclusive [inhibitor, single point]"
12,O=C1CC[C@@H](O)CCN1CC[C@H](Sc1ccccc1)c1ccccc1,"inconclusive [inhibitor, single point]"
13,COC(=O)Cn1c(=NC(=O)c2ccc(Cl)s2)sc2cc(C)ccc21,inactive
14,O=C(c1ccco1)N1CCN(Cc2cc(=O)c(OCc3ccccc3F)co2)CC1,inactive
15,CC(C)COc1ccc(C(=O)Nc2ccc([N+](=O)[O-])cc2)cc1,"inconclusive [inhibitor, partial curve]"
16,COc1cc(C2C(C#N)=C(N)Oc3cc(O)ccc32)cc(OC)c1OC (configuration not stated),inactive
17,COc1cc2c(cc1NC(=O)c1cccc([N+](=O)[O-])c1)oc1ccccc12,"inconclusive [inhibitor, full curve]"
18,COc1ccc(OC)c(NC(=O)CSc2nc3ccccc3c(=O)n2CC2CCCO2)c1 (configuration not stated),"inconclusive [inhibitor, single point]"
19,CN1CC=C2C(C#N)=C(N)C(C#N)(C#N)C(CCc3ccccc3)C2C1 (configuration not stated),inactive
20,COc1ccc(N(CC(=O)NCCSCc2ccco2)S(=O)(=O)c2ccccc2)cc1,inactive
21,CCCCn1c(N)c(N(C(=O)CSc2nncn2-c2ccccc2)C2CCCC2)c(=O)[nH]c1=O,inactive
22,COCCCn1c(=O)/c(=C\c2ccccc2OC(F)F)s/c1=C(/C#N)C(=O)NC(C)C,inactive
23,CCOC(=O)c1c(NC(=O)CSc2nnc(-c3cccnc3)o2)sc(C)c1C,"inconclusive [inhibitor, single point]"
24,COC(=O)c1ccccc1N/C=C1\CCc2c(c(C)nn2-c2ccccn2)C1=O,inactive

row,Compound,Potency
1,CC1CCCC(NC(=S)Nc2ccc(SC(F)F)cc2)C1C (configuration not stated),active: 31.6 µM
2,CCN(CC(=O)NCc1ccncc1)S(=O)(=O)c1ccc(OC)cc1,inactive
3,N#C/C(=C/c1ccc(Sc2nc3ccccc3[nH]2)o1)c1cccc(F)c1,"inconclusive [inhibitor, single point]"
4,COc1ccc(CCC(=O)OCc2csc(CC(=O)Nc3ccc(C)cc3)n2)cc1OC,inactive
5,Cn1c(=O)[nH]c(=O)c2c1nc(Br)n2CCOc1ccccc1,inactive
6,Clc1ccc(CN2CCC(c3nc4ccc(Cl)cc4[nH]3)CC2)cc1,"inconclusive [inhibitor, single point]"
7,O=C(Cn1cnc2ccccc2c1=O)c1ccc2ccccc2c1,inactive
8,CN(CC(=O)Nc1cccc(F)c1)C(=O)c1sccc1-c1ccccc1,"inconclusive [inhibitor, single point]"
9,NC(=O)c1ccccc1NC(=O)COc1ccc2c(c1)OCO2,inactive
10,CC(=O)NCCSc1ccc(S(=O)(=O)N2CCCC2)cn1,"inconclusive [inhibitor, full curve, poor fit]"
11,CCn1c(CCCOc2ccc(Cl)cc2Cl)nnc1SCC(=O)Nc1cc(F)ccc1C,"inconclusive [inhibitor, partial curve]"
12,COc1ccc(NC(=O)c2cccs2)c([N+](=O)[O-])c1,inactive
13,O=C(Nc1ccccc1C(F)(F)F)N1CCN(c2ccc3nnc(-c4ccc(F)cc4)n3n2)CC1,"inconclusive [inhibitor, single point]"
14,COc1cc2c(cc1NC(=O)C(C)OC(=O)c1ccc(S(=O)(=O)Nc3ccccc3Cl)cc1)oc1ccccc12 (configuration not stated),"inconclusive [inhibitor, single point]"
15,O=C(Nc1nc2c(s1)CCCC2)c1cc(-c2ccc3c(c2)OCO3)nc2ccccc12,"inconclusive [inhibitor, partial curve, poor fit]"
16,CCN(CC)C(=O)c1ccc(COc2ccccc2Cl)cc1,"inconclusive [inhibitor, single point]"
17,CCCOc1ccc(CCc2n[nH]c(=S)n2-c2ccccc2)cc1,inactive
18,Cc1cc(/C=C2\C(=N)N3N=C(CC(=O)N4CCOCC4)SC3=NC2=O)c(C)n1-c1ccccc1,inactive
19,CCOc1ccccc1N1CCN(C(=O)c2cc3c(C)cc(C)cc3[nH]2)CC1,"inconclusive [inhibitor, single point]"
20,O=C1c2oc3ccc(Cl)cc3c(=O)c2C(c2cccc(Br)c2)N1CCO (configuration not stated),"inconclusive [inhibitor, single point]"
21,Cc1c(F)cccc1NS(=O)(=O)c1ccc2c(c1)c(C)cc(=O)n2C,inactive
22,CSc1nsc(SCC(=O)Nc2ccc(F)cc2)n1,inactive
23,COc1ccc(NC(=O)CC2Oc3ccccc3NC2=O)cc1 (configuration not stated),inactive
24,Cc1cccc(Nc2nc(N)c([N+](=O)[O-])c(N3CC(C)OC(C)C3)n2)c1 (configuration not stated),active: 10 µM

row,Compound,Potency
1,CC(C)(C)c1ccc(-c2nnc(SCCC#N)n2C2CCCC2)cc1,"inconclusive [inhibitor, single point]"
2,O=C(c1ccc(S(=O)(=O)Nc2ccccc2)cc1)N1CCCC(C(F)(F)F)C1 (configuration not stated),"inconclusive [inhibitor, single point]"
3,Cc1cc(-c2ccc(C)c(S(=O)(=O)NCc3ccc(Br)cc3)c2)on1,"inconclusive [inhibitor, single point]"
4,COc1ccccc1-c1cc(C(=O)N/N=C/c2ccc(C)o2)c2ccccc2n1,inactive
5,O=C(N[C@H]1C/C=C\C(c2ccc(F)cc2)N(Cc2ccccc2)C(=O)C1)OCC1c2ccccc2-c2ccccc21 (some centres not stated),"inconclusive [inhibitor, partial curve]"
6,O=C1C2C(C(=O)N1CC1CCCO1)C1C=CC2C12CC2 (configuration not stated),inactive
7,CCn1c2ccccc2c2cc(NC(=O)COC(=O)c3ccc(O)cc3)ccc21,"inconclusive [inhibitor, single point]"
8,COc1cc(C2CC(c3cccs3)=NN2C(=O)CCl)ccc1OC(F)F (configuration not stated),active: 11.2 µM
9,O=C(/C=C/c1ccc2c(c1)OCO2)NCc1ccco1,inactive
10,NC(=O)CSc1nnc(-c2ccccc2F)n1C1CC1,"inconclusive [inhibitor, single point]"
11,CCCCn1nc2cc(C(=O)NC3CCCc4ccccc43)ccc2c1OCC (configuration not stated),active: 1.78 µM
12,CCn1c(C)c(C)c2cc(C(=O)N3CCc4ccccc4C3)ccc21,"inconclusive [inhibitor, single point]"
13,Cc1ccc(S(=O)(=O)NCCC(=O)NCCCSc2ccccc2)cc1,"inconclusive [inhibitor, single point]"
14,CSc1nsc(SCC(=O)Nc2nc3ccccc3s2)n1,inactive
15,CC(=O)c1ccc(N2CCN(C(=S)Nc3cccc(F)c3)CC2)cc1,"inconclusive [inhibitor, partial curve]"
16,Cc1ccc(-c2ccc(/C=N\NC(=O)c3cc4c(ccc5ccccc54)o3)o2)cc1[N+](=O)[O-],"inconclusive [inhibitor, full curve]"
17,O=C(Nc1ccc(Cl)c(S(=O)(=O)N2CCCC2)c1)c1nn(CCO)c(=O)c2ccccc12,"inconclusive [inhibitor, full curve]"
18,COc1ccc(S(=O)(=O)N2CCN(CC(=O)Nc3ccc(C)c(F)c3)CC2)cc1,"inconclusive [inhibitor, single point]"
19,O=c1[nH]c2ccc(S(=O)(=O)Nc3ccccc3O)cc2[nH]1,inactive
20,CNC(=S)N(Cc1ccc(OC)cc1)C1CC(=O)N(c2ccc(OC)cc2)C1=O (configuration not stated),"inconclusive [inhibitor, single point]"
21,CCn1c(Cc2ccc(OC)cc2)nnc1SCC(=O)Nc1cccc(C(=O)OC)c1,"inconclusive [inhibitor, partial curve, poor fit]"
22,CCOC(=O)c1[nH]c2ccc(OC)cc2c1NC(=O)c1ccc(OC)c(OC)c1,"inconclusive [inhibitor, single point]"
23,CCOc1ccc(-c2c(C(=O)N/N=C(\C)c3ccncc3)nnn2-c2nonc2N)cc1,"inconclusive [inhibitor, single point]"
24,O=C(NC1CCCCC1)c1ccc(-c2ccc(Cl)cc2)o1,"inconclusive [inhibitor, partial curve]"
